For 38 molecules, cell viability results are on record in the supplement of paper PMC9588766.

Counter-ions that a name gives are not always drawn. Whole data set: some 1,900 compounds, median “cell viability of compound + 1 nM pemigatinib relative to pemigatinib-only (DMSO) wells” near 0.95, cut for the lowest 2% near 0.22. Some of the results follow.

This test relates to PDC-DUC18828. Put plainly: cell viability of compound + 1 nM pemigatinib relative to pemigatinib-only (DMSO) wells (fraction); PDC-DUC18828 is a patient-derived cholangiocarcinoma cell line; higher = less growth inhibition. Conditions: first compound 1 µM; pemigatinib concentration 1 nM; 72 h. The method, then:
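Selleck Bioactive library screen in the patient-derived FGFR2 fusion-positive ICC cell line PDC-DUC18828 (500 cells/well). Each compound was tested at 1 uM with 1 nM pemigatinib, in triplicate, for 72 h. Viability was read by CellTiter-Glo and normalised to plate DMSO controls. Value is the paper's averaged normalised viability.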
As to `O=c1[nH]cnc2[nH]ncc12` [Allopurinol Sodium] + CCN1C(=O)N(c2c(F)c(OC)cc(OC)c2F)Cc2cnc3[nH]c(CN4CCOCC4)cc3c21 [pemigatinib], the cell viability was 1.02.
In the case of `CCOC(=O)[C@H](CCc1ccccc1)N[C@@H](C)C(=O)N1Cc2cc(OC)c(OC)cc2C[C@H]1C(=O)O` [Moexipril HCl] + CCN1C(=O)N(c2c(F)c(OC)cc(OC)c2F)Cc2cnc3[nH]c(CN4CCOCC4)cc3c21 [pemigatinib] it was 0.981; in that of `Cn1c(Nc2ccc(C(F)(F)F)cc2)nc2cc(Oc3ccnc(-c4ncc(C(F)(F)F)[nH]4)c3)ccc21` + CCN1C(=O)N(c2c(F)c(OC)cc(OC)c2F)Cc2cnc3[nH]c(CN4CCOCC4)cc3c21 [pemigatinib], 0.943.
In the case of `COC(=O)C1=C(C)NC(C)=C(C(=O)OC(C)C)C1c1cccc2nonc12` (stereo not drawn) [Isradipine] + CCN1C(=O)N(c2c(F)c(OC)cc(OC)c2F)Cc2cnc3[nH]c(CN4CCOCC4)cc3c21 [pemigatinib] it was 0.992; in that of `CC(=O)SCC(Cc1ccccc1)C(=O)NCC(=O)OCc1ccccc1` (stereo not drawn) [Racecadotril] + CCN1C(=O)N(c2c(F)c(OC)cc(OC)c2F)Cc2cnc3[nH]c(CN4CCOCC4)cc3c21 [pemigatinib], 0.965; in that of `C[C@H](CCC(=O)O)[C@H]1CC[C@H]2[C@@H]3CC[C@@H]4C[C@H](O)CC[C@]4(C)[C@H]3CC[C@]12C` [Lithocholic acid] + CCN1C(=O)N(c2c(F)c(OC)cc(OC)c2F)Cc2cnc3[nH]c(CN4CCOCC4)cc3c21 [pemigatinib], 0.869.
Regarding `O=C(/C=C/N1C[C@H]2C[C@@H]1CN2c1ccccn1)c1ccccc1O` + CCN1C(=O)N(c2c(F)c(OC)cc(OC)c2F)Cc2cnc3[nH]c(CN4CCOCC4)cc3c21 [pemigatinib], the cell viability came out at 1.06.
On to `CCOC(=O)Nc1ccc(NCc2ccc(F)cc2)nc1N` [Flupirtine maleate] + CCN1C(=O)N(c2c(F)c(OC)cc(OC)c2F)Cc2cnc3[nH]c(CN4CCOCC4)cc3c21 [pemigatinib], for which the cell viability worked out at 0.954.
As to `O=C(O)CCCC[C@@H]1SC[C@@H]2NC(=O)N[C@@H]21` [Biotin (Vitamin B7)] + CCN1C(=O)N(c2c(F)c(OC)cc(OC)c2F)Cc2cnc3[nH]c(CN4CCOCC4)cc3c21 [pemigatinib], the cell viability amounted to 0.904.
In the case of `CCOc1cc(C(C)(C)C)ccc1C1=N[C@@](C)(c2ccc(Cl)cc2)[C@@](C)(c2ccc(Cl)cc2)N1C(=O)N1CCN(CCCS(C)(=O)=O)CC1` + CCN1C(=O)N(c2c(F)c(OC)cc(OC)c2F)Cc2cnc3[nH]c(CN4CCOCC4)cc3c21 [pemigatinib] it was 0.892.
Next, `CC(C)C(=O)Nc1ccc([N+](=O)[O-])c(C(F)(F)F)c1` [Flutamide] + CCN1C(=O)N(c2c(F)c(OC)cc(OC)c2F)Cc2cnc3[nH]c(CN4CCOCC4)cc3c21 [pemigatinib]: 1.05; `CC(=O)Oc1cc2c(s1)CCN(C(C(=O)C1CC1)c1ccccc1F)C2` (stereo not drawn) [Prasugrel] + CCN1C(=O)N(c2c(F)c(OC)cc(OC)c2F)Cc2cnc3[nH]c(CN4CCOCC4)cc3c21 [pemigatinib]: 0.915.
Next, `Cn1cnc([N+](=O)[O-])c1Sc1ncnc2[nH]cnc12` [Azathioprine] + CCN1C(=O)N(c2c(F)c(OC)cc(OC)c2F)Cc2cnc3[nH]c(CN4CCOCC4)cc3c21 [pemigatinib]: 0.97.
`S=C(NCc1ccc2c(c1)OCO2)N1CCN(c2ncnc3c2oc2ccccc23)CC1` [Amuvatinib (MP-470)] + CCN1C(=O)N(c2c(F)c(OC)cc(OC)c2F)Cc2cnc3[nH]c(CN4CCOCC4)cc3c21 [pemigatinib]: the cell viability was 0.988.
In the case of `OCCN1C[C@H](O)[C@@H](O)[C@H](O)[C@H]1CO` [Miglitol] + CCN1C(=O)N(c2c(F)c(OC)cc(OC)c2F)Cc2cnc3[nH]c(CN4CCOCC4)cc3c21 [pemigatinib] it was 0.991.
In the case of `CC(=O)OCC[N+](C)(C)C` [Acetylcholine Chloride] + CCN1C(=O)N(c2c(F)c(OC)cc(OC)c2F)Cc2cnc3[nH]c(CN4CCOCC4)cc3c21 [pemigatinib] it was 0.934; in that of `CC1(C)CCC2=C(O1)c1ccccc1C(=O)C2=O` [Beta-Lapachone] + CCN1C(=O)N(c2c(F)c(OC)cc(OC)c2F)Cc2cnc3[nH]c(CN4CCOCC4)cc3c21 [pemigatinib], 0.803; in that of `Cc1cc(C)nc(SCC(=O)Nc2ncc(Cc3cccc4ccccc34)s2)n1` + CCN1C(=O)N(c2c(F)c(OC)cc(OC)c2F)Cc2cnc3[nH]c(CN4CCOCC4)cc3c21 [pemigatinib], 0.852.
In the case of `O=c1c2ccccc2nc2n1CCc1c-2[nH]c2ccccc12` [Rutaecarpine] + CCN1C(=O)N(c2c(F)c(OC)cc(OC)c2F)Cc2cnc3[nH]c(CN4CCOCC4)cc3c21 [pemigatinib] it was 0.957; in that of `O=C(O)C(S)=Cc1c[nH]c2ccc(F)cc12` + CCN1C(=O)N(c2c(F)c(OC)cc(OC)c2F)Cc2cnc3[nH]c(CN4CCOCC4)cc3c21 [pemigatinib], 0.99.
Turning to `O=C(/C=C/C=C/c1ccc2c(c1)OCO2)N1CCCCC1` [Piperine] + CCN1C(=O)N(c2c(F)c(OC)cc(OC)c2F)Cc2cnc3[nH]c(CN4CCOCC4)cc3c21 [pemigatinib], the cell viability is 0.951.
In the case of `CCC(=O)OCC(=O)[C@@]1(OC(=O)CC)[C@@H](C)C[C@H]2[C@@H]3CCC4=CC(=O)C=C[C@]4(C)[C@@]3(Cl)[C@@H](O)C[C@@]21C` [Beclomethasone dipropionate] + CCN1C(=O)N(c2c(F)c(OC)cc(OC)c2F)Cc2cnc3[nH]c(CN4CCOCC4)cc3c21 [pemigatinib] it was 0.824.
In the case of `CN(C)CCCn1cc(C2=C(c3c[nH]c4ccccc34)C(=O)NC2=O)c2ccccc21` + CCN1C(=O)N(c2c(F)c(OC)cc(OC)c2F)Cc2cnc3[nH]c(CN4CCOCC4)cc3c21 [pemigatinib] it was 1; in that of `COc1nc(N)nc2c1ncn2[C@@H]1O[C@H](CO)[C@@H](O)[C@@H]1O` [Nelarabine] + CCN1C(=O)N(c2c(F)c(OC)cc(OC)c2F)Cc2cnc3[nH]c(CN4CCOCC4)cc3c21 [pemigatinib], 0.956; in that of `O=C(Nc1cccc(Nc2ncc(Br)c(NCCc3cnc[nH]3)n2)c1)N1CCCC1` + CCN1C(=O)N(c2c(F)c(OC)cc(OC)c2F)Cc2cnc3[nH]c(CN4CCOCC4)cc3c21 [pemigatinib], 0.842.
Next, `COc1ccccc1N1CCN(CCCNc2cc(=O)n(C)c(=O)n2C)CC1` [Urapidil HCl] + CCN1C(=O)N(c2c(F)c(OC)cc(OC)c2F)Cc2cnc3[nH]c(CN4CCOCC4)cc3c21 [pemigatinib]: 0.967; `C[C@@]1(c2cc(-c3cncnc3)c(F)cc2F)CCSC(N)=N1` + CCN1C(=O)N(c2c(F)c(OC)cc(OC)c2F)Cc2cnc3[nH]c(CN4CCOCC4)cc3c21 [pemigatinib]: 1.05.
With `C[C@H]1Oc2cc(cnc2N)-c2c(nn(C)c2C#N)CN(C)C(=O)c2ccc(F)cc21` + CCN1C(=O)N(c2c(F)c(OC)cc(OC)c2F)Cc2cnc3[nH]c(CN4CCOCC4)cc3c21 [pemigatinib], the cell viability was 0.926.
Consider `O=C1NC(=O)[C@@H](c2cn3c4c(cccc24)CCC3)[C@@H]1c1c[nH]c2ccccc12` [Tivantinib (ARQ 197)] + CCN1C(=O)N(c2c(F)c(OC)cc(OC)c2F)Cc2cnc3[nH]c(CN4CCOCC4)cc3c21 [pemigatinib], for which the cell viability stood at 0.426.
In the case of `CCc1cnn2c(NCc3ccc[n+]([O-])c3)cc(N3CCCC[C@H]3CCO)nc12` + CCN1C(=O)N(c2c(F)c(OC)cc(OC)c2F)Cc2cnc3[nH]c(CN4CCOCC4)cc3c21 [pemigatinib] it was 0.286; in that of `C[C@H]1[C@H](OC(=O)CCC(=O)O)O[C@@H]2O[C@@]3(C)CC[C@H]4[C@H](C)CC[C@@H]1[C@@]24OO3` [Artesunate] + CCN1C(=O)N(c2c(F)c(OC)cc(OC)c2F)Cc2cnc3[nH]c(CN4CCOCC4)cc3c21 [pemigatinib], 0.705; in that of `CN(C)CCNC(=O)c1cccn2c(=O)c3cc4ccccc4cc3nc12` + CCN1C(=O)N(c2c(F)c(OC)cc(OC)c2F)Cc2cnc3[nH]c(CN4CCOCC4)cc3c21 [pemigatinib], 0.897.
For `COC(=O)[C@H](CCSC)NC(=O)c1ccc(NC[C@@H](N)CS)cc1-c1ccccc1` + CCN1C(=O)N(c2c(F)c(OC)cc(OC)c2F)Cc2cnc3[nH]c(CN4CCOCC4)cc3c21 [pemigatinib], the cell viability was determined as 0.876.
Next, `CCOc1cc(N)c(Cl)cc1C(=O)NCC1CN(Cc2ccc(F)cc2)CCO1` (stereo not drawn) [Mosapride Citrate] + CCN1C(=O)N(c2c(F)c(OC)cc(OC)c2F)Cc2cnc3[nH]c(CN4CCOCC4)cc3c21 [pemigatinib]: 0.988; `CCC(C)n1ncn(-c2ccc(N3CCN(c4ccc(OCC5COC(Cn6cncn6)(c6ccc(Cl)cc6Cl)O5)cc4)CC3)cc2)c1=O` (stereo not drawn) [Itraconazole] + CCN1C(=O)N(c2c(F)c(OC)cc(OC)c2F)Cc2cnc3[nH]c(CN4CCOCC4)cc3c21 [pemigatinib]: 0.908; `Cc1cccc(Nc2ccccc2C(=O)O)c1C` [Mefenamic Acid] + CCN1C(=O)N(c2c(F)c(OC)cc(OC)c2F)Cc2cnc3[nH]c(CN4CCOCC4)cc3c21 [pemigatinib]: 0.954.
In the case of `CC(C)(C(=O)NCC(F)(F)C(F)(F)F)C(=O)N[C@@H]1C(=O)Nc2ccccc2-c2ccccc21` + CCN1C(=O)N(c2c(F)c(OC)cc(OC)c2F)Cc2cnc3[nH]c(CN4CCOCC4)cc3c21 [pemigatinib] it was 1.07; in that of `Cc1cc(C)c(CNC(=O)c2cc(-c3ccc(N4CCN(C)CC4)nc3)cc3c2c(C)cn3C(C)C)c(=O)[nH]1` + CCN1C(=O)N(c2c(F)c(OC)cc(OC)c2F)Cc2cnc3[nH]c(CN4CCOCC4)cc3c21 [pemigatinib], 0.972.
